Laboratory results as given in PubChem BioAssay AID1963576 (National Center for Advancing Translational Sciences (NCATS), 2024).
Hit rate of the full screen: of about 46,000 compounds, about 60 (0.1%) were called active. About 3% were inconclusive and are not listed. Calls come from the whole dose curve; as a rule, active = well fitted inhibition curve with a large enough effect; inconclusive = small, poorly fitted or top-dose-only effect; inactive = no such curve, though single readings can be large or run the other way. This is one part of the list.

Assay: Primary qHTS assay for Inhibitors of ovarian cancer metastasis using an organotypic tumor microenvironment (TME) model.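 For activity change, negative = inhibition: plate controls were DMSO wells for no effect and tomatine positive control wells for full effect.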 Note: nearly all actives have a fitted effect of over 65% in size.
Details: SKOV3ip1-GFP adhesion/invasion on 3D omental model, fluorescence; series mostly up to 45.8 µM; activity change, negative = inhibition: at the top concentration
In short: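 A 3D layer of primary human omental fibroblasts, mesothelial cells, fibronectin and collagen I, grown 48 hr, received SKOV3ip1-GFP cells in serum-free medium plus compounds at 0.36-46 umol/L. After 2 hr RT and 16 hr 37 C, fixed adherent GFP cells were counted; normalized to DMSO and tomatine.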

Activity change, negative = inhibition, inactive:
CSc1ccc(-c2nc3ncccn3c2Nc2ccc(C)c(C)c2)cc1 -0.773%
CC(=O)c1ccc(NC(=O)Nc2nnc(N3CCCC(C)C3)s2)cc1 (stereo not given) -23.1%
CCN(c1ccccc1)c1nnc(NC(=O)Nc2cccc(Cl)c2C)s1 1.59%
CN(C)c1oc(/C=C/c2ccc(F)cc2)nc1C#N -8.68%
Cc1cccc(-c2c3c(=O)n(C)c(=O)n(C)c3cn2-c2cc(N)c(Cl)cc2Cl)c1 0.492%
COCCN1CCc2nc(SCC(=O)Nc3ccc(Br)cc3)[nH]c(=O)c2C1 5.63%
COc1ccc(Cl)cc1Nc1ncnc2c1c(-c1ccccc1)cn2-c1ccccc1 4.63%
CC(C)(C)OC(=O)N1CCC(c2c(C(=O)NCc3cccs3)cnn2-c2ccc(F)cc2F)CC1 15.4%
Cc1nc2c(C(=O)NCCc3ccccc3)cnn2c(C)c1Cc1c(F)cccc1Cl 7.05%
COc1ccc(NC(=O)Nc2sc3nc4n(c(=O)c3c2C)CCC(C)CC4)cc1OC (stereo not given) 2.82%
Cc1ccc(NCc2ccccc2-c2nnc(-c3ccccc3Cl)o2)c(C)c1 27.4%
COc1ccc(CC(=O)NCc2ccc3c(c2)CCN3C(=O)c2ccc(Cl)cc2)cc1OC 2.1%
O=c1cc(-c2ccccc2)c2cc(Cl)c3c(c2o1)CN(Cc1ccccc1)CO3 -0.976%
Cc1cc(C)c2c(=O)cc(CSc3nnc(COc4ccccc4C)n3C)[nH]c2c1 0.175%
COc1ccccc1-c1cc(C(F)(F)F)nc(S(=O)(=O)CCCC(=O)Nc2cc(OC)c(OC)c(OC)c2)n1 -0.252%
COc1ccc(N(Cc2cccs2)C(=O)Nc2ccccc2)cc1 8.54%
COc1ccc(OC)c(NC(=O)CN2C(=O)c3ccccc3Sc3ccc(C(=O)N4CCCC4)cc32)c1 0.418%
CCOC(=O)c1c(Oc2ccc(OC)cc2)nnc(-c2ccccc2)c1-c1ccccc1 15.1%
COc1ccccc1NC(=O)Cn1c(=O)n(Cc2ccco2)c(=O)c2cccnc21 -7.3%
Cc1cc(-c2ccc(C)c(S(=O)(=O)N(C)c3ccc(C)c(C)c3)c2)on1 6.92%
Cc1ccc(CNC(=O)c2nnc(Cc3cccc(F)c3)o2)cc1 7.55%
CCOC(=O)c1cc(-c2ccc(OC)c(S(=O)(=O)Nc3ccc(OC)cc3OC)c2)on1 -14.4%
COc1ccccc1-c1nnc(SCCOc2ccccc2C)o1 -3.82%
CC(C)c1ccc(S(=O)(=O)c2cnc(SCC(=O)Nc3cccc(C(F)(F)F)c3)nc2N)cc1 1.77%
COc1ccc(N2CC(C(=O)Nc3ccc(NC(C)=O)cc3)CC2=O)cc1 (stereo not given) -0.342%
COC(=O)c1sccc1S(=O)(=O)N1CCN(c2ccccc2OC)CC1 7.21%
O=C(Nc1ccc2nc(SCCOc3ccccc3Cl)sc2c1)c1cccs1 3.54%
COc1ccc(NC(=O)C2=C(C)Nc3nc(CCCO)nn3C2c2ccc(O)cc2)cc1 (stereo not given) 0.682%
CCN1C(=O)c2ccccc2S(=O)c2ccc(C(=O)NCc3ccc(F)cc3)cc21 (stereo not given) 4.34%
COCCCNC(=O)C(=O)NCC(c1ccc2c(c1)OCO2)N1CCOCC1 (stereo not given) -11.2%
CCOc1ccc(C(c2c(O)cc(C)n(CCOC)c2=O)N2CCN(c3ccccc3F)CC2)cc1 (stereo not given) 12%
Cc1cc(C)c2oc(C(=O)Nc3sc4c(c3C(=O)NCc3ccco3)CCCC4)cc(=O)c2c1 3.04%
Cc1ccc(N(C(=O)COc2ccccc2C)S(=O)(=O)c2ccc(Cl)cc2)cc1 4.44%
Cc1ccc(CNC(=O)CCSCc2ccccc2F)cc1 -3.87%
CCOCCCNC(=O)c1ccc(NC(=O)N2CCCCc3ccccc32)cc1 -7.71%
Cc1c(NC(=O)c2ccc(Cl)cc2)cc(C(C)C)c(O)c1S(=O)(=O)c1ccc(Cl)cc1 -12.4%
COc1ccccc1N1CCN(c2ccc(=O)n(CC(=O)Nc3ccc(F)c(F)c3)n2)CC1 2.52%
CCOc1ccc(NC(=O)N2CCC(CN3CCc4ccccc4C3)CC2)cc1 8.75%
COc1ccccc1NC(=O)Cn1c(=O)n(-c2ccc(C)cc2)c(=O)c2ccc(C(=O)NCc3ccco3)cc21 -6.15%
Cc1ccc(Nc2c(-c3cc(Br)ccc3F)nc3cc(C)ccn23)cc1 -20.7%
CCN(CC)S(=O)(=O)c1cc(-c2nnc(Nc3ccc(OC)c(C(N)=O)c3)c3ccccc23)ccc1C -19.2%
O=C(NCc1ccc(Cl)cc1)C1CCCN(C(=O)c2cnn(-c3ccc(F)cc3)c2-n2cccc2)C1 (stereo not given) -7.41%
CCC(=O)N1CCc2cc(CNC(=O)C(CC)c3ccccc3)ccc21 (stereo not given) -0.46%
Cc1ccc(C)c(Nc2cc(C(=O)NC3CCCCC3)c3ccccc3n2)c1 3.6%
COc1cccc(OCCSc2nc3ccccc3n2CC(=O)N2CCCCC2)c1 8.92%
Cc1ccccc1Cn1c(=O)n(CCc2ccccc2)c(=O)c2c(C)c(C)sc21 1.59%
CCC[C@H](Nc1nc(-c2ccc(NC(=O)NCC)c(OC)c2)ncc1C)c1cccnc1 8.64%
COc1cccc(-n2cc(C(=O)NCc3ccccc3OC)c3ccccc3c2=O)c1 -9.49%
COc1ccc(-c2nc(CN3CCC(C(=O)NCCCOC(C)C)CC3)c(C)o2)cc1OC 3.88%
Cc1cccc(C)c1-n1ncc(C(=O)NCCN2CCOCC2)c1C1CCN(C(=O)OC(C)(C)C)CC1 -3.53%
COc1ccc(NC(=O)Cn2c(=O)n(Cc3nc(C)no3)c(=O)c3cc4c(cc32)OCO4)cc1OC -1.28%
COc1ccc(OC)c(C2N=C(N)Nc3nc4ccccc4n32)c1 (stereo not given) 12.7%
COc1cc(OC)c(C2Nc3ccccc3-c3nnc(SCc4ccccc4)nc3O2)cc1OC (stereo not given) 9.09%
O=C(CCn1ccc2cc(S(=O)(=O)N3CCCC3)ccc21)NCc1cccc(F)c1 -1.88%
COC(=O)CSc1nc(-c2ccc(F)cc2)cc(C(F)(F)F)n1 24.3%
Cc1ccc(C)c(NC(=O)CCn2nc(C)c3c(C)n(-c4ccccc4)nc3c2=O)c1 1.89%
Cc1nc(-c2ccc(Cl)cc2)sc1CCNC(=O)c1ccc(C(F)(F)F)cc1 -22.8%
COc1ccccc1C(=O)OCc1cc(=O)n2nc(C3CC3)sc2n1 -3.89%
Cc1c(Cl)cccc1NC(=O)C(C)n1c(=O)cc(-c2ccccc2)c2c(C)nn(C)c21 (stereo not given) 1.32%
COc1ccc(NC(=O)C(c2ccc(C)cc2)N(C)C(=O)Cc2cccs2)cc1 (stereo not given) -6.42%
COc1ccc(-c2cccc(NS(=O)(=O)c3cc(C)c(OC)c(C)c3C)c2)nn1 -3.43%
CCOc1ccccc1C(=O)N1CC(=O)Nc2ccc(Cl)cc2C1c1ccccc1 (stereo not given) 3.25%
O=C(Cn1c(-c2cccs2)cc2cc(Cl)ccc21)N1CCN(c2ccccc2)CC1 -7.41%
CCc1ccc(NC(=O)c2sc3nc(C)c(Cl)c(C)c3c2N)cc1 38.7%
CCOC(=O)c1ccc(N2CCN(c3cccc(Cl)c3)CC2)c(NC(=O)Nc2ccc(OC)cc2OC)c1 -10.6%
COc1ccc(Cl)cc1NC(=O)CN(C)S(=O)(=O)c1ccc2c(c1)CCCN2C(C)=O 0.212%
C=CCC(CC=C)(CNC(=O)C(=O)Nc1cccc(C(F)(F)F)c1)c1ccccc1 4.89%
O=C(CC(c1cccs1)N1Cc2ccccc2C1=O)Nc1ccc(F)c(Cl)c1 (stereo not given) -1.91%
CCc1cccc(C)c1NC(=O)CSc1nc(C)cc(C)c1C(=O)Nc1ccccc1 0.457%
CCCN1C(=O)C(O)(CC(=O)c2ccc(CC)cc2)c2ccccc21 (stereo not given) 8.99%
Cc1ccc(Oc2c(C(F)(F)F)oc3cc(OCC(=O)NC4CCCCC4)ccc3c2=O)cc1 1.01%

outcome, inactive:
CCOCCCNC(=O)c1cc2c(-c3ccc(OC)c(OC)c3)nn(C)c2s1
NC(=O)C1(N2CCCCC2)CCN(C(=O)Nc2ccc(C(F)(F)F)cc2)CC1
CCS(=O)(=O)c1ncc(Cl)c(C(=O)N2CCN(c3cccc(Cl)c3)CC2)n1
Cc1ccc(CNS(=O)(=O)c2cc(C(=O)Nc3cccc(C(F)(F)F)c3)ccc2F)cc1
CCOC(=O)c1ccc(N2C(=O)c3n[nH]c(-c4cccs4)c3C2c2ccc(C(C)C)cc2)cc1 (stereo not given)
Cc1ccc2c(c1)c1c(c(=O)n(-c3ccccc3C)c(=O)n1CC(=O)NCc1ccccc1)n2C
CCc1cccc(CC)c1NS(=O)(=O)c1ccc2c(c1)CCN2C(=O)C1CC1
Cc1ccc(C)c(S(=O)(=O)c2nnn3c2nc(N2CCOCC2)c2sccc23)c1
CC(C)N(Cc1ccccc1)c1ncnc2c1nnn2C
O=C(NCc1cccnc1)c1nn(-c2ccccc2F)nc1CO
Cc1ccc(NC(=O)c2cccc(N3CCCS3(=O)=O)c2)cc1
CCCc1cc(C(=O)Nc2c(C)nn(Cc3ccc(C)cc3)c2C)no1
O=C(CCn1c(=O)c2cccn2c2ccc(F)cc21)NCCc1ccccc1
CCc1cc2c(cc3c(=O)n(CC(=O)NCCc4ccc(OC)c(OC)c4)ncn32)s1
COC(=O)c1cc(S(=O)(=O)NCC2CCN(Cc3cccc(F)c3)CC2)c[nH]1
Cc1ccc(C)c(NC(=O)c2ccc3c(c2)CCN3S(C)(=O)=O)c1
CCC1CCc2nc3sc(C(=O)Nc4ccc(F)c(Cl)c4)c(N)c3cc2C1 (stereo not given)
CCC(C(=O)Nc1ccccc1C(=O)OC)n1nc(C)c2c(C)n(-c3ccc(C)cc3)nc2c1=O (stereo not given)
Cc1cccc(-c2nn3c(=O)cc(CN4CCN(S(=O)(=O)c5ccc(Cl)cc5)CC4)nc3s2)c1
COc1ccccc1CNC(=O)CSc1ncc2c(n1)-c1ccc(Cl)cc1N(Cc1ccccc1)S2(=O)=O
O=C(Cn1c(=O)c2cc(Cl)ccc2n2nncc12)Nc1ccccc1
Cc1ccc(NC(=O)C2CCCN2S(=O)(=O)c2ccc3c(c2)CCCC(=O)N3)cc1C (stereo not given)
CC(=O)Nc1cc(C(=O)NCc2ccc(C)cc2)ccc1Sc1ccc(C)cc1
CCC1CN(C(=O)N2CCC(C(=O)NCCN(CC)CC)CC2)c2ccccc2O1 (stereo not given)
